# Assay results from the RNAGym collection of RNA variant scans (doi:10.1101/gad.245936.114).
# This sample is rich in variants without activity.
# B1: tRNA (parent)
# chain: CUCUCGGUAGCCAAGUUGGUUUAAGGCGCAAGACUUUAAUUUAUCACUACGAAAUCUUGAGAUCGGGCGUUCGACUCGCCCCCGGGAGAUUUUUUCCUCGAGCAA
# Variants of: B1
# Experiment: nonsense suppression (GFP-seq) (ratio to wild type); higher = more function; SUP4oc tRNA, yeast GFP reporter sort-seq
# How it was run: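 Each variant's nonsense suppression (GFPSEQ) is a cell-share-weighted bin median GFP/RFP relative to the unmutated parent tRNA. Yeast with genome-integrated tRNA variants from a ~3% random-mutation library, a galactose-driven GFP ochre reporter and RFP were grown in raffinose/galactose medium with 80 mg/L adenine, then sorted into GFP/RFP bins for Illumina sequencing. Variants needed ≥100 reads and ≥30 cells.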
row,Variant,nonsense suppression
1,U2G G28U,≤ 0.026
2,U2C G15A U58G U70C G85A,≤ 0.026
3,U2G U76A G78C,≤ 0.026
4,U2C G86C,≤ 0.026
5,U2G U57A A74U,≤ 0.026
6,C3A G7C U8A C11G,≤ 0.026
7,U2C G85C,≤ 0.026
8,U2G U63C G86A,≤ 0.026
9,U2C A30U A31G A62G G67A G86C,≤ 0.026
10,C3A A14G A33C,≤ 0.026
11,C3A C27G U71G,≤ 0.026
12,C3A G6U A14G,≤ 0.026
13,U2G U16C U71G,≤ 0.026
14,U2C C5A A33G,≤ 0.026
15,U2C C5A,≤ 0.026
16,C3A A14G C29A A33U C56U,≤ 0.026
17,U2C C29U A62C G69U G88U,≤ 0.026
18,U2G G19C,≤ 0.026
19,U2C U4G U17A A87G G88A,≤ 0.026
20,U2C C3U C12U G15A,≤ 0.026
21,U2A U70G,≤ 0.026
22,C3A G25C A60C U76A,≤ 0.026
23,C3A C34G A54C U58G U63A,≤ 0.026
24,U2G G10U U63C G66A C72U A87C,≤ 0.026

row,Variant,nonsense suppression
1,U2C C34U,≤ 0.026
2,U2C A9G U20C U55C G84U,≤ 0.026
3,C3A A9G A31C A60U C68U C82G,≤ 0.026
4,U2G C11G U17G A62U,≤ 0.026
5,U2A U21A C29U,≤ 0.026
6,U2G U4G C68A,≤ 0.026
7,U2G U16C U17G G66C G85C,≤ 0.026
8,U2C G6C A24G,≤ 0.026
9,U2C A30G U71C,≤ 0.026
10,U2A U22C G61C G67U C79G,≤ 0.026
11,U2C C56G U71G,≤ 0.026
12,U2G U17C C34U,≤ 0.026
13,C3A A9G C29U U76G G88C,≤ 0.026
14,U2A U16C A23U G32U C34A G59A,≤ 0.026
15,U2C C11U,≤ 0.026
16,U2C C11A,≤ 0.026
17,U2G A13G,≤ 0.026
18,U2G G86A,≤ 0.026
19,U2C G28U A74U C83A,≤ 0.026
20,U2C G18C C29U G65A G73A,≤ 0.026
21,U2C U58A,≤ 0.026
22,U2C U76A,≤ 0.026
23,U2G U20C C29A,≤ 0.026
24,U2G C75A G86A,≤ 0.026

row,Variant,nonsense suppression
1,U2C U55A,≤ 0.026
2,U2G G26C G69U G85U,≤ 0.026
3,U2C G66A A87U,≤ 0.026
4,U2C A33C G85U,≤ 0.026
5,C3A G10C U22G A62U,≤ 0.026
6,U2C U63C U71C G86A,≤ 0.026
7,U2C C27U A31G U57C,≤ 0.026
8,U2G U17G A23G C27G C34G C75A,≤ 0.026
9,U2C G67A U71A A74C G88C A89G,≤ 0.026
10,C3A A24C U58C C72G,≤ 0.026
11,U2C G6C G61A G86A,≤ 0.026
12,U2C G69U C75U,≤ 0.026
13,C3A C11G G61C G65C A89C,≤ 0.026
14,U2G C79G C80A,≤ 0.026
15,C3A G15A G78U,≤ 0.026
16,U2C C12G A31U U35G,≤ 0.026
17,U2G C5G A33G,≤ 0.026
18,U2C G10A,≤ 0.026
19,U2C C56U G59A A87U,≤ 0.026
20,U2G C5U A31C U63A,≤ 0.026
21,U2C G61C,0.0279
22,U2C G61U,0.122
23,C3A C83G,≤ 0.026
24,C3A C83U,≤ 0.026

row,Variant,nonsense suppression
1,C3A A33C C72G C82A,≤ 0.026
2,U2C U21A G28C A30G U55A G69C,≤ 0.026
3,U2G U35G U76G,≤ 0.026
4,U2G U4G U16G U63G,≤ 0.026
5,U2G C3A G65U,≤ 0.026
6,U2C U55C U58G,≤ 0.026
7,C3A A31G G85U,≤ 0.026
8,U2C A23G C80A,≤ 0.026
9,U2C U20A,≤ 0.026
10,U2G U21C A62C,≤ 0.026
11,C3A C5U U17A G66C,≤ 0.026
12,U2C G73C U76A,≤ 0.026
13,U2G G32A,≤ 0.026
14,U2G G32C,≤ 0.026
15,U2G G32U,≤ 0.026
16,U2G G7U U58G C83U,≤ 0.026
17,C3A A23G A30G C56U G84A,≤ 0.026
18,C3A G18A C34G G65A C81G,≤ 0.026
19,U2C U8A G19A G67C G85U,≤ 0.026
20,U2G A24U U70A C83A G88C,≤ 0.026
21,C3A G15U G25A,≤ 0.026
22,U2C A30C U55G U70G C83U,≤ 0.026
23,C3A C11G A23G C79U,≤ 0.026
24,U2G C27A U57C,≤ 0.026

row,Variant,nonsense suppression
1,U2C U35A U57C A62C,≤ 0.026
2,U2G A9C U35A,≤ 0.026
3,U2G U71A G86A A89U,≤ 0.026
4,U2C U58G U70C,≤ 0.026
5,U2C C68A C75A,≤ 0.026
6,U2G C83A,≤ 0.026
7,C3A A9G G10A,≤ 0.026
8,U2G U35C G78U C83U,≤ 0.026
9,U2C G78A,0.0386
10,U2G C5G,≤ 0.026
11,U2G U16A G73A,≤ 0.026
12,C3A A9G U22C C29G,≤ 0.026
13,U2G C27U G32C,≤ 0.026
14,U2G C12G A13C G25U A33C A74U,≤ 0.026
15,U2G G32C A54U G78A,≤ 0.026
16,U2G C12A C29U C64G,≤ 0.026
17,U2C C3G C75A A87C,≤ 0.026
18,U2G C3G,≤ 0.026
19,U2G G26A C77U,≤ 0.026
20,C3A A30U,≤ 0.026
21,U2C A14U C29A G73A,≤ 0.026
22,U2C C27A G73C,≤ 0.026
23,U2G G7A G19A A62U C80U,≤ 0.026
24,U2A U76C G78U,≤ 0.026

row,Variant,nonsense suppression
1,U2C G15A C34U C56A,≤ 0.026
2,U2G A14G G65C,≤ 0.026
3,C3A G19A,≤ 0.026
4,U2G G7A G26C C34G C75U,≤ 0.026
5,U2G G6A U63G,≤ 0.026
6,U2C C3U C29G,≤ 0.026
7,U2G A31C G59A,≤ 0.026
8,C3A C12U U16A U22G,≤ 0.026
9,U2G A33C A60U G73C,≤ 0.026
10,C3A A23C G26A U58A G78C,≤ 0.026
11,U2C G15U,≤ 0.026
12,U2C G15A,≤ 0.026
13,C3A G7U U35G,≤ 0.026
14,U2C A13C A24U A31G,≤ 0.026
15,U2G C11U A23C A89C,≤ 0.026
16,U2G C81G,≤ 0.026
17,U2G U4C C27U C81G C83G,≤ 0.026
18,C3A G7A A33U,≤ 0.026
19,U2G A30G U57A U63C,≤ 0.026
20,U2C A9C C27G U58A,≤ 0.026
21,C3A A33G G86A,≤ 0.026
22,C3A C29G C34A U71C,≤ 0.026
23,U2A U17A A31G,≤ 0.026
24,C3A A23G,≤ 0.026

row,Variant,nonsense suppression
1,U2G C5G C11U A24C,≤ 0.026
2,U2G U55C,0.053
3,U2A U55C C77A,≤ 0.026
4,U2C A13U U16C G65A G66U,≤ 0.026
5,C3A A13U G26C G32U C64G,≤ 0.026
6,U2C A14C,≤ 0.026
7,U2C A14U,≤ 0.026
8,U2G A33U C56A,≤ 0.026
9,U2C A24G A31G U63A,≤ 0.026
10,U2G A23C C27G A62C C75U,≤ 0.026
11,U2C G18U C68A,≤ 0.026
12,U2C,0.185
13,U2G,≤ 0.026
14,U2G C3G A14C C56U,≤ 0.026
15,U2C C68G,≤ 0.026
16,U2C U8G G26A,≤ 0.026
17,U2G A60G,≤ 0.026
18,U2G G59U A89G,≤ 0.026
19,U2C A30C A60G G85A,≤ 0.026
20,C3A A14C A54C,≤ 0.026
21,U2G U21G,≤ 0.026
22,U2G G10C C34A G85A,≤ 0.026
23,C3A C68G,≤ 0.026
